Assay results taken from PubChem BioAssay AID1508642 (National Center for Advancing Translational Sciences (NCATS), 2021).
Hit rate of the full screen: of about 43,000 compounds, about 200 (0.47%) were called active. Inconclusive results (about 12%) are left out. The call rests on the fitted dose curve; in most records, active means well fitted cell-killing curve with a large enough effect; inconclusive means small, poorly fitted or top-dose-only effect, or effect the other way; inactive means flat fitted curve, though single readings scatter. This is one part of the list.

Test: Cell viability qHTS assay in S16 Pmp22-F2sN cells; further: nearly all actives have a fitted effect of over 65% in size
Details: S16 Pmp22-F2sN Schwann cells (luciferase reporters placed in the Pmp22 gene) viability, CellTiter-Glo, 24 h; series mostly up to 57.5 µM; activity change, negative = cytotoxicity: at the top concentration
In short: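 Luminescence from CellTiter-Glo, read by CCD camera after a 15 min room-temperature incubation, served as the viability signal. Reporter Schwann cells (S16 Pmp22-F2sN) had been treated with pin-transferred compounds for 24 h at 37C.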
On the % scale 0 is the no-effect control and ±100 the full control effect.

Structure (SMILES) | activity change, negative = cytotoxicity
COc1ccc(NC(=O)CCc2nnc3n(CC(C)C)c(=O)c4ccccc4n23)cc1OC | inactive: 12.6%
CN(C)CCNC(=O)Cn1nc(N2CCN(c3ccccc3)CC2)ccc1=O | inactive: -1.3%
COc1cc2c(cc1OC)n(CC(=O)c1ccc(C)cc1)c(=O)n1nc(CCn3nc(C)cc3C)nc21 | inactive: 1.97%
COc1ccc(-c2cc(C(=O)Oc3cccc(C)c3C)c3ccccc3n2)cc1 | inactive: 2.93%
Cc1ccc(O)c(NC(=O)COCc2cc(-c3ccco3)on2)c1 | inactive: -3.69%
CC(=O)Nc1nonc1-c1nnc(SCc2ccccc2Cl)n1C | inactive: -0.0983%
Cc1cc(C)c2c(=O)c3c(oc2c1)C(=O)N(Cc1ccco1)C3c1ccccc1F (stereo unspecified) | inactive: -4.86%
Cn1cc(-c2cc3n(n2)CCC(=O)N3CCCC(=O)Nc2ccccc2F)c2ccccc21 | inactive: 5.37%
CCc1ccc(NC(=O)c2ccc(F)c(S(=O)(=O)N3CCN(c4cc(C)ccc4C)CC3)c2)cc1 | inactive: -8.39%
Cc1noc(-c2ccc(-c3noc(-c4ccc(C(F)(F)F)cc4)n3)cc2)n1 | inactive: 1.31%
COc1ccc(Nc2nc(-c3ccccc3F)nc3ccccc23)cc1OC | inactive: -5.83%
CCc1cccc(NC(=O)C(CC)n2nc(C)c3sc4ccccc4c3c2=O)c1 (stereo unspecified) | inactive: 2.64%
Cc1c(C(=O)NCc2ccccc2Br)oc2ccc3c(c12)C(=O)CC(C)(C)O3 | inactive: -1.66%
COc1ccc(NC(=O)c2sc3nc4c(cc3c2N)CN(Cc2ccccc2)CC4)cc1OC | inactive: -3.51%
O=C(NC1CC(=O)N(c2ccccc2)C1)c1ccc(S(=O)(=O)N2CCCC2)cc1 (stereo unspecified) | inactive: -0.854%
Nc1ncc(S(=O)(=O)NCc2ccc(F)cc2)cn1 | inactive: 1.45%
CC(CCCc1ccccc1)NC(=O)c1nn(-c2ccc(Cl)cc2)nc1CO (stereo unspecified) | inactive: -1.29%
CC(C)c1cccc(C(C)C)c1NS(=O)(=O)c1cccs1 | inactive: -2.14%
Cc1ccc2[nH]c3c(=O)n(CC(=O)N4CCCC(C)C4)ncc3c2c1 (stereo unspecified) | inactive: 16%
CC(=O)c1cccc(Nc2nc(-c3ccccc3Cl)nc3ccccc23)c1 | inactive: -1.56%
Cc1ccccc1Cn1c2ccccc2c2cnn(CC(=O)NCCc3ccc(Cl)cc3)c(=O)c21 | inactive: 16.6%

Structure (SMILES) | activity change, negative = cytotoxicity
CCOc1ccccc1NC(=O)c1cc2c(=O)[nH]c3ccccc3c2s1 | inactive: 1.82%
Cc1cccc2sc(N(Cc3cccnc3)C(=O)COc3ccccc3)nc12 | inactive: -13.8%
COc1ccc(-c2nc3ccccc3s2)cc1NC(C)=O | inactive: -0.0075%
CCOC(=O)c1c(C)[nH]c(C)c1S(=O)(=O)NCC(=O)N1CCN(c2ccccc2F)CC1 | inactive: -5.47%
COc1ccc(CNC(=O)C2CCN(S(=O)(=O)c3ccc4c(ccn4C)c3)CC2)cc1 | inactive: 0.141%
Cc1cc(C)c2c(-n3cccc3)c(C(=O)NCC(C)c3ccccc3)sc2n1 (stereo unspecified) | inactive: 8.61%
COc1ccc(C(=O)CCC(=O)Nc2cc(C)ccc2C)cc1 | inactive: 5.44%
COc1ccc(CN2CCN(S(=O)(=O)c3ccc(NC(C)=O)cc3)CC2)c(OC)c1OC | inactive: -2.97%
CC(=O)c1cc2c(cc1N/C(=N/S(=O)(=O)c1ccc(F)cc1)c1ccccc1)OCO2 | inactive: -14.3%
O=C(NC1CCCCC1)c1ccc2c(c1)N(Cc1cccc(Cl)c1)C(=O)c1ccccc1S2=O (stereo unspecified) | inactive: -26.7%
CCc1ccc(NC(=O)c2sc3nc(C)cc(C)c3c2NC(=O)c2ccccc2OC)cc1 | inactive: 25.7%
CCN(Cc1ccccc1)C(=O)CCS(=O)(=O)c1ccc2c(c1)CCN2C(C)=O | inactive: -0.0878%
COc1cc(OC)c(NC(=O)CSc2cc(=O)n(C)c3ccc(Cl)cc23)cc1Cl | inactive: 19.8%
CCc1c(CN2CCN(c3cccc(C)c3)C(C)C2)csc1C (stereo unspecified) | inactive: 11.8%
O=C(Cn1ncc2c3ccccc3n(Cc3cccc(Cl)c3)c2c1=O)N1CCCCCC1 | inactive: -25.5%
CCOc1ccc(CCNC(=O)Cn2c(C)c3cnn(-c4ccccc4)c(=O)c3c2C)cc1 | inactive: 0.18%
COc1ccccc1N1CCN(S(=O)(=O)CCNC(=O)C(c2ccccc2)c2ccccc2)CC1 | inactive: -6.51%
CCc1ccc(NC(=O)Cn2c(=O)n(CCc3ccccc3)c(=O)c3sc4ccccc4c32)cc1 | inactive: -1.89%
CC(=O)c1cccc(N2C(=O)CN(S(C)(=O)=O)CC2(C)C(=O)NC2CCCC2)c1 (stereo unspecified) | inactive: -6.54%
O=S(=O)(c1ccc2nc(Nc3ccc(F)cc3)ccc2c1)N1CCCC1 | inactive: -0.543%
Cc1ccc(C)c(CNC(=O)CN2C(=O)CSc3ccc(S(=O)(=O)N(C)C)cc32)c1 | inactive: -16.7%

Structure (SMILES) | activity change, negative = cytotoxicity
Cc1cccc(-n2nnc(-c3nc(-c4cccs4)no3)c2N)c1 | inactive: 7.79%
CCOC(=O)c1[nH]c(C)c(CCC(=O)Nc2cc(Cl)c(OC)cc2OC)c1C | inactive: -13.7%
Cc1cc(C)c(NC(=O)Cn2c(=O)n(CC(=O)NCCc3ccccc3)c(=O)c3ccccc32)c(C)c1 | inactive: 1.6%
O=C(CSc1nc2ccccc2n1Cc1cccc(F)c1)N1CCN(c2ccc(F)cc2)CC1 | inactive: 5.71%
O=C(NC1CCCCCC1)c1ccc(CS(=O)c2cccc(Cl)c2)o1 (stereo unspecified) | inactive: 15.3%
O=C(NCc1ccccc1Cl)c1ccc2c(c1)N(Cc1ccccc1)CCS2 | inactive: -11.4%
CCC(C)NC(=O)c1cn(CC)c2ccc(S(=O)(=O)N3CCc4ccccc4C3)cc2c1=O (stereo unspecified) | inactive: -20.1%
Cc1ccc(CCNC(=O)c2ccc3c(c2)N(Cc2ccc(F)cc2)CCS3)cc1 | inactive: -21.5%
COc1ccc(CNC(=O)c2ccc(CS(=O)(=O)c3ccc(Br)cc3)o2)cc1 | inactive: -2.11%
CCOc1ccc(OCC)c(NC(=O)c2cc(-c3cccs3)nc3ccccc23)c1 | inactive: -1.98%
CCc1cccc(C)c1NC(=O)Cn1ncc2c3ccccc3n(Cc3ccccc3)c2c1=O | inactive: 20.1%
COc1ccc(-c2cn3nc(SCC(=O)Nc4cc(C)cc(C)c4)ccc3n2)cc1 | inactive: 2.09%
Cc1ccc(Cl)cc1Nc1nn2c(=O)c3ccc(C(=O)NC4CCCCC4)cc3nc2s1 | inactive: -15.3%
COc1ccc(OC)c(NC(=O)CS(=O)(=O)Cc2nc(-c3ccc(C)cc3)oc2C)c1 | inactive: 8.19%
CCCSc1ncnc2c1c(-c1ccccc1)cn2-c1ccccc1OC | inactive: 1.34%
CCOc1ccc2c(c1)c(=O)c(S(=O)(=O)c1ccc(CC)cc1)cn2Cc1cccc(Cl)c1 | inactive: -14.7%
O=C1CCSc2ccc(S(=O)(=O)Nc3cccc(C(F)(F)F)c3)cc2N1 | inactive: 5.11%
O=c1c(N2CCN(c3cccc(Cl)c3)CC2)csc2ccc(Cl)cc12 | inactive: 19.9%
O=c1c2sccc2n(Cc2cc(=O)n3cc(Cl)ccc3n2)c(=O)n1-c1ccccc1 | inactive: -0.251%
